T1: Kif3B (human kinesin-2 motor subunit), full length (human, UniProt O15066 1-747)
T1 construct: Kif3B, human, synthesised gene, full-length subunit; source: Sf9 (baculovirus), coexpressed with Kif3A, purified (IgG Sepharose, TEV elution, SEC); not shown: ZZ, N-terminal, cleaved
T1 sequence (looked up): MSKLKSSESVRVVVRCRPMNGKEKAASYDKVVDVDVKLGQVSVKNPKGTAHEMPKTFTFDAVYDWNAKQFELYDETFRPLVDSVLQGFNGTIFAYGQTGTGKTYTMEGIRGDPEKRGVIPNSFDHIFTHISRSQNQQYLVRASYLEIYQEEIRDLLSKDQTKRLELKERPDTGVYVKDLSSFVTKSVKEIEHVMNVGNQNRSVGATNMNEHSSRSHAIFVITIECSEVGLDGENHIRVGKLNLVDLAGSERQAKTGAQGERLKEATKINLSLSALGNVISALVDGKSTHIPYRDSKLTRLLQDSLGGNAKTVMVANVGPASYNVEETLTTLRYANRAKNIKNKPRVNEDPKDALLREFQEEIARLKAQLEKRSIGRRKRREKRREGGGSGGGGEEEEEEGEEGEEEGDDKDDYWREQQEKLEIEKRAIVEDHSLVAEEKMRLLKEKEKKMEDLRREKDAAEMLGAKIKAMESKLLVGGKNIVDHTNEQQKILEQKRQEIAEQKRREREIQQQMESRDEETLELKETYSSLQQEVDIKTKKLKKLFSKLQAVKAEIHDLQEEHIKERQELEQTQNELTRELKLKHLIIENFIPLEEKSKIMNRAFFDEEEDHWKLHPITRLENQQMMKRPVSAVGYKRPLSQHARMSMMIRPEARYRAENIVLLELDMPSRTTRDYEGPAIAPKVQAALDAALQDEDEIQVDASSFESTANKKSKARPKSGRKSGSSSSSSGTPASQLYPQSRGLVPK

T2: Kif3B^ΔC39 (human, UniProt O15066 1-708)
T2 construct: Kif3B, human, 39 amino acids truncated from the C terminus; also called Kif3B^Δ39; source: Sf9 (baculovirus), coexpressed with Kif3A^ΔC103, purified (IgG Sepharose, TEV elution, SEC); not shown: ZZ, N-terminal, cleaved
T2 sequence (looked up): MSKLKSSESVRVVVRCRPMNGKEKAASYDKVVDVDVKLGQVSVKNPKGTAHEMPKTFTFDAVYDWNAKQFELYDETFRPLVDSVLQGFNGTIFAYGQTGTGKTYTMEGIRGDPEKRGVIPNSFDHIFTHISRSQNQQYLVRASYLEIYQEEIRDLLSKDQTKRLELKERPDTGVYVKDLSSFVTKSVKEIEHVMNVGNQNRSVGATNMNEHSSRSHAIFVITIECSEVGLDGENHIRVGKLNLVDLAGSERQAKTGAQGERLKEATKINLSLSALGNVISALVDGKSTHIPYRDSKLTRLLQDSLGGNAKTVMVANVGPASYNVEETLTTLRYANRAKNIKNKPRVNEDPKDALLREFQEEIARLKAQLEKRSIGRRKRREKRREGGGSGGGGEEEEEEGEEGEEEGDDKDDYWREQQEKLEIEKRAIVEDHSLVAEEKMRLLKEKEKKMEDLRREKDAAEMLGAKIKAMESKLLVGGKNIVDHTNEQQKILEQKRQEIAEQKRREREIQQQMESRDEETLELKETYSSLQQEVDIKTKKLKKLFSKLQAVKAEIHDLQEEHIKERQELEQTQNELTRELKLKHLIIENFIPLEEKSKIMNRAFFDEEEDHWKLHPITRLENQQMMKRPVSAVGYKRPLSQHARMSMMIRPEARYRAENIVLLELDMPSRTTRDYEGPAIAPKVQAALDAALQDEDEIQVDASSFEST

T3: Kif3B^ΔC114 (human, UniProt O15066 1-633)
T3 construct: Kif3B, human, 114 amino acids truncated from the C terminus; also called Kif3B^Δ114; source: Sf9 (baculovirus), coexpressed with Kif3A^ΔC103, purified (IgG Sepharose, TEV elution, SEC); not shown: ZZ, N-terminal, cleaved
T3 sequence (looked up): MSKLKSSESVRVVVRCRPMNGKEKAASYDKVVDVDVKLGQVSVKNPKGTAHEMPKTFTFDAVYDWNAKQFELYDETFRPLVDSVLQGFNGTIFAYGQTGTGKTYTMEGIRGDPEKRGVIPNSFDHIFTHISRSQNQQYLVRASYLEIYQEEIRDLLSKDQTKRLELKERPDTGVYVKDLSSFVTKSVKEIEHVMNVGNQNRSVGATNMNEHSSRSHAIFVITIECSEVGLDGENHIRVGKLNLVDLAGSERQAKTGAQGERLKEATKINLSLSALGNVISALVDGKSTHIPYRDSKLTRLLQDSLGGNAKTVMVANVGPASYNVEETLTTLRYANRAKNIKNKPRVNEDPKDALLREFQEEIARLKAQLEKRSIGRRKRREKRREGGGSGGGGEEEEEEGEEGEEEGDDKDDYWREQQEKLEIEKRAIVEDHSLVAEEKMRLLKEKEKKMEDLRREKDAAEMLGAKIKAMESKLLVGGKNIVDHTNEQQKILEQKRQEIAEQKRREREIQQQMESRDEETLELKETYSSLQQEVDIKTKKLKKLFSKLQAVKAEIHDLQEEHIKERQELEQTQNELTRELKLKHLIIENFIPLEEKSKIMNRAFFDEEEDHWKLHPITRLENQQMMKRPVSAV

T4: Kif3B^ΔC90 (human, UniProt O15066 1-657)
T4 construct: Kif3B, human, 90 amino acids truncated from the C terminus; also called Kif3B^Δ90; source: Sf9 (baculovirus), coexpressed with Kif3A^ΔC103, purified (IgG Sepharose, TEV elution, SEC); not shown: ZZ, N-terminal, cleaved
T4 sequence (looked up): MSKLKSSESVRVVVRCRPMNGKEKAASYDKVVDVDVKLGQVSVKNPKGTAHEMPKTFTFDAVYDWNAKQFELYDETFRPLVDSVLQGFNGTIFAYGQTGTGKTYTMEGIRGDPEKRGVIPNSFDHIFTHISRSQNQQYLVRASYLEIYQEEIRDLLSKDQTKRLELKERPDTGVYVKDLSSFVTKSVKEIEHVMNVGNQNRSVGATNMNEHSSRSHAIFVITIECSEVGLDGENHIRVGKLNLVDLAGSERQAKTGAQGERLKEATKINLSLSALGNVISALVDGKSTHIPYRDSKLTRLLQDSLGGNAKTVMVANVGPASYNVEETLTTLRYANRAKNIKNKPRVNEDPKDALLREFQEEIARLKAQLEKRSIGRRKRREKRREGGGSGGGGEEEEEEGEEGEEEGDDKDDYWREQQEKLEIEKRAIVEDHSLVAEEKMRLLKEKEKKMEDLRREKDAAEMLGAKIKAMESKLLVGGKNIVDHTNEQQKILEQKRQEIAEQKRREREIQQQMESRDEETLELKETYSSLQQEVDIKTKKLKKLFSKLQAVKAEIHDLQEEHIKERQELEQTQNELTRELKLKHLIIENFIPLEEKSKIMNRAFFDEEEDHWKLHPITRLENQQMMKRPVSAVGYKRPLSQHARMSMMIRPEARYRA

B1: Kif3A^ΔC103–Kif3B^ΔC90 heterodimer (complex)
chain 1: [about 600 residues omitted]
chain 2: T4 sequence (looked up)
notes: Kif3A, human, 103 amino acids truncated from the C terminus; Kif3B, human, 90 amino acids truncated from the C terminus; SNAPf on Kif3A labelled with Alexa Fluor 647; also called Kif3A^Δ103B^Δ90; source: Sf9 (baculovirus), coexpressed, purified (IgG Sepharose, TEV elution, SEC); not shown: SNAPf, C-terminal, kept; ZZ, N-terminal, cleaved
B2: Kif3A^ΔC59 (domain or fragment)
chain: not shown
notes: Kif3A, human, 59 amino acids truncated from the C terminus; also called Kif3A truncated by 59 C-terminal amino acids; source: Sf9 (baculovirus), coexpressed with Kif3B, purified (IgG Sepharose, TEV elution, SEC); not shown: SNAPf, C-terminal, kept
B3: Kif3A^ΔC103 (domain or fragment)
chain: not shown
notes: Kif3A, human, 103 amino acids truncated from the C terminus; also called Kif3A^Δ103; source: Sf9 (baculovirus), coexpressed with Kif3B constructs, purified (IgG Sepharose, TEV elution, SEC); not shown: SNAPf, C-terminal, kept
B4: Kif3A^ΔC89–Kif3B heterodimer (ΔInt1) (complex)
chain 1: [about 600 residues omitted]
chain 2: T1 sequence (looked up)
notes: Kif3A, human, 89 amino acids truncated from the C terminus (within the β-hairpin motif); Kif3B, human, synthesised gene, full-length subunit; also called Kif3A^Δ89B; source: Sf9 (baculovirus), coexpressed, purified (IgG Sepharose, TEV elution, SEC); not shown: SNAPf, C-terminal, kept; ZZ, N-terminal, cleaved
B5: Kif3A^ΔC103–Kif3B heterodimer (complex)
chain 1: [about 600 residues omitted]
chain 2: T1 sequence (looked up)
notes: Kif3A, human, 103 amino acids truncated from the C terminus (beyond the β-hairpin motif); Kif3B, human, synthesised gene, full-length subunit; SNAPf on Kif3A labelled with Alexa Fluor 647; also called Kif3A^Δ103B; source: Sf9 (baculovirus), coexpressed, purified (IgG Sepharose, TEV elution, SEC); not shown: SNAPf, C-terminal, kept; ZZ, N-terminal, cleaved
B6: Kif3A^ΔC38 (domain or fragment)
chain: not shown
notes: Kif3A, human, 38 amino acids truncated from the C terminus; also called Kif3A truncated by 38 C-terminal amino acids; source: Sf9 (baculovirus), coexpressed with Kif3B, purified (IgG Sepharose, TEV elution, SEC); not shown: SNAPf, C-terminal, kept
B7: Kif3A^ΔC89 (domain or fragment)
chain: not shown
notes: Kif3A, human, 89 amino acids truncated from the C terminus; also called Kif3A^Δ89; source: Sf9 (baculovirus), coexpressed with Kif3B, purified (IgG Sepharose, TEV elution, SEC); not shown: SNAPf, C-terminal, kept

Assays:
Details in all cases: both partners purified
[1] = molecular target: microtubules polymerized from porcine tubulin (porcine, UniProt P02550; Q767L7); test: single-molecule TIRF microtubule binding and motility; biotinylated Alexa Fluor 488 microtubules held on neutravidin; 0.15–40 nM Alexa-Fluor-647-labelled motor in buffer B (50 mM Tris-HCl pH 8.0, 50 mM KCl, 2 mM MgCl2, 1 mM EGTA) with 1 mM Mg-ATP, 25 °C
[2] = molecular target: T1, Kif3B (human kinesin-2 motor subunit), …; test: SEC; motor subunits coexpressed in Sf9, purified through the ZZ tag of Kif3B/C on IgG Sepharose, TEV elution, Superose 6 Increase 3.2/300 in buffer A (50 mM Tris-HCl pH 7.5, 150 mM K-acetate, 2 mM Mg-acetate, 5% glycerol, 1 mM DTT, 0.2 mM Mg-ATP); SDS-PAGE of peak fraction
Kif3B^ΔC39 = molecular target: T2, Kif3B^ΔC39; test: as above
Kif3B^ΔC114 = molecular target: T3, Kif3B^ΔC114; test: as above
Kif3B^ΔC90 = molecular target: T4, Kif3B^ΔC90; test: as above

| Binder | landing rate [1] | binding result [2] | also measured |
| --- | --- | --- | --- |
| B1 | ~3.2 μm^−1 nM^−1 min^−1 | – | – |
| B2 | – | binds | – |
| B3 | – | – | binding result (Kif3B^ΔC39): binds; binding result (Kif3B^ΔC114): binds; binding result (Kif3B^ΔC90): binds |
| B4 | ~0.6 μm^−1 nM^−1 min^−1 | – | – |
| B5 | ~0.6 μm^−1 nM^−1 min^−1 | – | – |
| B6 | – | binds | – |
| B7 | – | binds | – |

— article PMC12527917, “Regulation of kinesin-2 motility by its β-hairpin motif” (Nature Structural & Molecular Biology, 2025)
